From PubChem BioAssay AID686979 (National Center for Advancing Translational Sciences (NCATS), 2013)
“And” between values parts separate entries of the source, which are not always exact repeats. Equal values may be shown once. Screen size: about 420,000 compounds; about 50,000 (12%) were called active. This list was built around the results that the source calls inconclusive (neither active nor inactive); the mix of calls is not that of the screen. Calls come from the whole dose curve; as a rule, active = well fitted inhibition curve with a large enough effect; inconclusive = small, poorly fitted or top-dose-only effect; inactive = flat fitted curve, though single readings scatter. Potencies beside an inconclusive call are fits to weak or partial responses and may not hold up.

assay: qHTS for Inhibitors of human tyrosyl-DNA phosphodiesterase 1 (TDP1): qHTS in cells in presence of CPT; details: chicken DT40 Tdp1-/-;hTDP1 cells + 20 nM CPT, ATP luminescence, 48 h; activity change, negative = growth inhibition: at 46.2 µM (top of the series) unless noted; note: nearly all actives have a fitted effect of over 55% in size
Procedure, shortened: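 Chicken DT40 Tdp1-/- cells stably complemented with human TDP1 were seeded at 400 cells/well in medium containing 20 nM camptothecin, exposed to pin-transferred compounds, and grown at 37 °C for at least 48 hr. Viability was read as ATP luminescence.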
% is set by controls: 0 for no effect and ±100 for the full control effect; potency is the fitted concentration of half-maximal effect; tags give direction and shape of the fitted curve.

SMILES | Potency | activity change, negative = growth inhibition
O=C1CCCC2=C1C(c1cccs1)n1nc(SCc3ccccc3)nc1N2 (configuration not stated) | inconclusive: 29.1 µM [inhibitor, single point] | –
O=C(COC(=O)c1cccc([N+](=O)[O-])c1)NC1CCCC1 | – | inactive: -3.16%
CCN(CC)C(=O)Cn1cc(C(=O)C(=O)N2CCN(Cc3ccc4c(c3)OCO4)CC2)c2ccccc21 | inconclusive: 29.1 µM [inhibitor, single point] | –
COc1ccc(Cl)cc1NS(=O)(=O)c1cc(Br)cc2c1N(C(=O)C1CC1)CC2 | inconclusive: 3.66 µM [inhibitor, full curve] | –
COc1cccc(Nc2ncc3ncc(=O)n(CCc4ccccc4)c3n2)c1 | – | inactive: -15.1%
Cc1cc(C)n2nc(SC(C)C(=O)Nc3ccccc3F)nc2n1 (configuration not stated) | – | inactive: -0.139%
CCc1ccc(C(=O)CCC(=O)Nc2ccc(OC)c(S(=O)(=O)N3CCCCC3)c2)cc1 | inconclusive: 29.1 µM [inhibitor, single point] | –
CN(Cc1cccc(F)c1)C(=O)c1ccccc1Sc1ccccc1C#N | inconclusive: 29.1 µM [inhibitor, single point] | –
Cc1ccc(-c2ccc(CCC(=O)O)n2C(C)C)cc1 | inconclusive: 16.4 µM [inhibitor, single point] | –
COc1ccc2cc(C3=CC(=O)CCC3)ccc2c1 | – | inactive: -17.1%
COc1ccccc1N1CCN(Cc2nc(N)nc(Nc3ccccc3)n2)CC1 | inconclusive: 29.1 µM [inhibitor, single point] | –
COc1ccc(-n2nc(C(=O)NCCc3ccc(Cl)cc3)c3c4ccccc4n(C)c3c2=O)cc1Cl | active: 3.66 µM | –
CCOC(=O)C1=C(C)NC2(O)c3ccccc3C(=O)C12O (configuration not stated) | – | inconclusive: -30.5% [inhibitor]
Cn1c(=O)c(C(=O)NCCc2ccc(Cl)cc2)c(O)c2ccccc21 | inconclusive: 20.6 µM [inhibitor, single point] | –
Cc1ccc(OCc2nnc(SCC(=O)Nc3nccs3)n2-c2ccccc2)cc1C | inconclusive: 29.1 µM [inhibitor, single point] | –
COc1ccc(CCNC(=O)c2c(O)nc3cc(C)ccn3c2=O)cc1OC | – | inactive: -7.16%
O=C(Cn1nc2c(cc1=O)CCCC2)Nc1ccc(F)cc1F | – | inactive: -11.3%
COc1ccc(/C=C/c2nc3ccccc3n2C)cc1 | active: 9.2 µM | –
N#C/C(=C\c1ccc(-c2ccccc2C(=O)O)o1)c1nc2ccccc2[nH]1 | inconclusive: 25.9 µM [inhibitor, single point] and inconclusive: 18.4 µM [inhibitor, single point] | –
COc1ccc(C(=O)N2CCc3cc(OC)c(OC)cc3C2c2cccc([N+](=O)[O-])c2)cc1OC (configuration not stated) | inconclusive: 25.9 µM [inhibitor, single point] | –
CC(C)C(=O)Nc1nc(-c2ccc3c(c2)CCN3C(=O)C2CC2)cs1 | active: 11.6 µM | –
CCC(=O)Nc1ccc2c(c1)ncn2-c1ccc(C)cc1 | – | inactive: -2.42%
S=C(NCc1ccccn1)Nc1ccc(Cl)cc1Cl | – | inactive: -4.76%
Cc1c(NC(=O)/C(C#N)=C/c2ccc(-c3ccc(Cl)cc3)o2)c(=O)n(-c2ccccc2)n1C | active: 10.3 µM | –

SMILES | Potency | activity change, negative = growth inhibition
COc1ccc(N2CCN(C(=O)Cc3coc4ccc(C)cc34)CC2)cc1 | active: 18.4 µM | –
COc1ccccc1N1CCN(C(=O)c2cc3c(=O)n4ccccc4nc3s2)CC1 | inconclusive: 25.9 µM [inhibitor, single point] | –
O=S(=O)(Nc1cccc(Cl)c1)c1ccc2[nH]c3c(c2c1)CCCCCC3 | active: 16.4 µM | –
CCOC(=O)c1c(NC(C)=O)c2c3c(sc2n1Cc1nc(-c2ccc(Cl)cc2)oc1C)CCCC3 | inconclusive: 5.17 µM [inhibitor, single point] | –
Cc1ccc(CNC(=O)C2c3ccccc3C(=O)N(C)C2c2c[nH]c3ccccc23)o1 (configuration not stated) | active: 20.6 µM | –
Cc1nc2ccc(C(=O)Nc3cccc(NS(C)(=O)=O)c3)cn2c1N(C)C(=O)CCc1ccccc1 | inconclusive: 13 µM [inhibitor, single point] | –
CCc1noc(-c2ccc(NC(C)c3ccccc3)c([N+](=O)[O-])c2)n1 (configuration not stated) | active: 18.4 µM | –
COc1ccc(N2CCN(c3ccc(Cl)nn3)CC2)cc1 | inconclusive: 20.6 µM [inhibitor, single point] | –
Brc1cccc[n+]1Cc1ccccc1C[n+]1ccccc1Br | inconclusive: 7.08 µM [inhibitor, partial curve] | –
CCCNS(=O)(=O)c1ccc(CCC(=O)N2CCCCC2)cc1 | inconclusive: 29.1 µM [inhibitor, single point] | –
O=C(NCc1ccccc1Cl)C1(S(=O)(=O)c2ccc(Cl)cc2)CC1 | inconclusive: 29.1 µM [inhibitor, single point] | –
CCCCCCN1C=CC=C/C1=C\C=C(C#N)C#N | – | inactive: 3.36%
CC(C)Oc1cccc(NC(=O)C2CCN(S(=O)(=O)Cc3ccccc3)CC2)c1 | active: 13 µM | –
Nn1c(SCC(=O)N2CCCc3ccccc32)nncc1=O | – | inactive: -0.646%
CN1CCN(C(=O)C2CCN(S(=O)(=O)c3ccc4c(c3)oc(=O)n4C)CC2)CC1 | – | inactive: -7.4%
CC1CCN(C(=O)c2ccc(NS(=O)(=O)c3cccc4cccnc34)cc2)CC1 | inconclusive: 18.4 µM [inhibitor, single point] | –
Cc1ccc(OCC(=O)N/N=C\c2ccc(C)o2)c(C)c1 | – | inactive: -3.13%
CC1CCCN(CCOCCOc2ccc(Cl)cc2Br)C1 (configuration not stated) | inconclusive: 11.2 µM [inhibitor, partial curve, poor fit] | –
N#C/C(=C\c1cn(CCOc2ccccc2)c2ccccc12)C(=O)NCc1ccco1 | inconclusive: 25.9 µM [inhibitor, single point] | –
CC(CC(=O)N(C)c1c(N)n(Cc2ccccc2)c(=O)[nH]c1=O)c1ccccc1 (configuration not stated) | – | inactive: -1.39%
Cc1nn(C)c(C)c1CNC(=O)c1cc2n(n1)C(C(F)(F)F)CC(c1cccs1)N2 (configuration not stated) | active: 10.3 µM | –
Cc1ccc2cc(COC(=O)c3cccc([N+](=O)[O-])c3)c(=O)[nH]c2c1 | – | inactive: -3.48%
Cc1nc(N2CCCC2)c2c(C(=O)Nc3ccc(C)c(Cl)c3)c(C)oc2n1 | – | inconclusive: -13.9% [inhibitor]
